Assay results from publication PMC4336329 (PLoS ONE, 2015).
In all, about 310,000 compounds went through this assay and about 14,000 (4.5%) showed an effect of 50% or more. Effects have a minus sign here. This is one part of the list.

target: human ether-à-go-go-related gene (hERG) potassium channel (human, UniProt Q12809); experiment: primary screen, population patch clamp on CHO cells stably expressing hERG
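Also: peak tail current of the secondary pulse compared with the same well before compound.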

Chain of human ether-à-go-go-related gene (hERG) potassium channel (Q12809 whole entry, looked up): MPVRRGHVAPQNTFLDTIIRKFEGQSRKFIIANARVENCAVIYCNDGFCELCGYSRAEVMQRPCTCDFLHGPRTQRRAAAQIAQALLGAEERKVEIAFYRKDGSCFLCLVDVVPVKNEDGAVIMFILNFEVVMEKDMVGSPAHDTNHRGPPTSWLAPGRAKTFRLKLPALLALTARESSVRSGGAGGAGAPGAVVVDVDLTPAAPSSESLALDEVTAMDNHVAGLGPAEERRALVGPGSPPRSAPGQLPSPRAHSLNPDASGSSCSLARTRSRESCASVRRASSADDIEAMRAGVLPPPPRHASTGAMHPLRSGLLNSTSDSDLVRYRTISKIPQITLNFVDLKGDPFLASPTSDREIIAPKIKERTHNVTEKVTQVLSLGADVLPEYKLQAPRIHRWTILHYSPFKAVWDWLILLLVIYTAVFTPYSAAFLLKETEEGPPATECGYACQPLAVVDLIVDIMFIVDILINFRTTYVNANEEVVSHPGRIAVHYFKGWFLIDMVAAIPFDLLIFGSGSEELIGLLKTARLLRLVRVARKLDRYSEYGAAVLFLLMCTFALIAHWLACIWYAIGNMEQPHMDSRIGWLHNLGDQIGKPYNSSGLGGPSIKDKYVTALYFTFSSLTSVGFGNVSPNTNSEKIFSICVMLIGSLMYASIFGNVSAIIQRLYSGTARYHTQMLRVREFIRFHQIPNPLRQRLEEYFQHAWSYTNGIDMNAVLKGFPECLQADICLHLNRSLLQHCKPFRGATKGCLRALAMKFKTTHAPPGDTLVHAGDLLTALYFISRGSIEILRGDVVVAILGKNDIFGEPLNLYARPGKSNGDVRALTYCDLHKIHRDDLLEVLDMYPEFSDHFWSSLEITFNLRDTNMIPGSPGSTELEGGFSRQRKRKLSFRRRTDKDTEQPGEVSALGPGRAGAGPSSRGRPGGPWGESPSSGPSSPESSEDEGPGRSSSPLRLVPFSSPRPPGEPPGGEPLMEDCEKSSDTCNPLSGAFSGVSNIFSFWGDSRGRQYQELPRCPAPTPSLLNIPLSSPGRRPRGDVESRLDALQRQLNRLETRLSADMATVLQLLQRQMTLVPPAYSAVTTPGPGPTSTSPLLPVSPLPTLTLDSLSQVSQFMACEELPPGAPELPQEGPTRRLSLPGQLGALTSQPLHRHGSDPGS

SMILES | hERG current change (%, negative = inhibition) at 10uM [%]
CSc1cccc(N2CC(C(=O)NCCN3C(=O)S/C(=C\c4cccnc4)C3=O)CC2=O)c1 (stereo not drawn) | -68.3
NC(=O)Cn1c(=O)n(-c2ccccc2)c(=O)c2oc3ccccc3c21 | 1.97
COC(=O)c1sc(NC(=O)COc2cccc3ccccc23)nc1C | 9.42
C[C@H](O)CC(=O)[O-].[Na+] | 4.73
CN(C)S(=O)(=O)c1ccc(N2CCCC2)c(C(=O)Nc2cccc(F)c2)c1 | 0.224
CCOC(=O)N1CCN(S(=O)(=O)c2ccc(C(=O)Nc3nnc(C)o3)cc2)CC1 | 4.83
O=C(Nc1ccccc1)C1=C[C@@H](c2coc3ccccc3c2=O)C[C@@H](OCCCCO)O1 | -41.1
Cc1nn(-c2ncc(C(F)(F)F)cc2Cl)c(=O)n1-c1c(F)cccc1F | 16.1
S=c1[nH]nc(-c2c[nH]c3ccccc23)o1 | 25.4
O=C(CSc1n[nH]c(=O)n1-c1cccnc1)N1CCOCC1 | 12
CCC(C)(C)NC(=O)Cc1ccc(OC)c(OC)c1 | 9.29
COc1cccc(C(=O)Nc2ccc(NC(=O)c3ccco3)cn2)c1 | -15.1
CCOc1ccc(CN2CCN(Cc3cc4ccccc4o3)CC2CCO)cc1 (stereo not drawn) | -80.4
COc1ccc(N2CCN(C(C)C(=O)N3CC(C)OC(C)C3)CC2)cc1.O=C(O)C(=O)O (stereo not drawn) | 18
Br.CCC1(C)CC(c2nc(-c3ccc(OC)cc3)cs2)CCS1 (stereo not drawn) | 1.55
Cc1ccc(/C=C/C(=O)NCCc2c[nH]c3ccccc23)o1 | -7.78
COC(=O)c1sc2nc(SCc3ccccc3C#N)n(N)c(=O)c2c1C | 9
COC(=O)Sc1nc(N2CCOCC2)c2c(c1C#N)CC(C)(C)OC2 | 6.22
Cc1ccc(C(=O)NCCCNCCCN(C)C)cn1.O=C(O)/C=C/C(=O)O | -8.66
Cc1scc(C(=O)N/N=C/c2ccc(OCC(C)C)cc2)c1C | 9.36
Cc1cc(C)c2cc(C#N)c(N3CCCN(C(=S)NCCCN(C)C)CC3)nc2c1 | -25.7

SMILES | hERG current change (%, negative = inhibition) at 10uM [%]
Cc1cc(C(=O)Nc2ccc(Nc3ccccc3)cc2)ccc1[N+](=O)[O-] | 17.3
O=C(CSc1ccccn1)N1CCN(c2cccc(Cl)c2)CC1 | -11.3
O=C(Nc1ccccc1F)c1ccc(-n2cncn2)nc1 | 4.88
Nc1c(N(CCCO)C(=O)C2CCCC2)c(=O)[nH]c(=O)n1Cc1ccccc1 | 11.3
CCN1CCN(CCCNC(=O)c2ccc3c(c2)N(Cc2ccccc2)CCS3)CC1 | -39.3
COC(=O)C1=C(c2ccc(F)cc2OCc2ccccc2)C[C@@H]2CC[C@H]1N2C(=O)NCc1ccc2[nH]ccc2c1 | 19.4
COc1cccc(C(C(=O)NC(C)(C)C)N(C(=O)CCC(=O)Nc2cc(C)on2)c2ccc3c(c2)OCCO3)c1OC (stereo not drawn) | 14.2
Cc1c(C(=O)N(CCc2ccccc2)Cc2ccccc2)cccc1[N+](=O)[O-] | 15.6
COc1ccccc1C(=O)NCCC(=O)OCC(=O)Nc1ccc(S(N)(=O)=O)cc1 | -2.51
Cc1oc2ccc(O)c(CN3CCOCC3)c2c1C(=O)c1ccc(Cl)cc1 | -41
COC(=O)c1c(C)[nH]c(C(=O)OC(C)C(=O)N2CCOCC2)c1C (stereo not drawn) | -0.266
COc1cc(C(=O)NCC2(N3CCCCC3)CCCCC2)ccc1OCC(=O)N1CCOCC1 | -3.67
O=C(CSc1nnnn1-c1ccccc1)NCC1(N2CCCCC2)CCCCC1 | -62.3
CCOC(=O)CCC(NC(=O)c1cncc(O)c1)C(=O)OCC.Cl (stereo not drawn) | 6.86
Cc1cccc(NC(=O)COC(=O)Cc2cccc(C(F)(F)F)c2)c1C | 22.8
Cc1ccc(S(=O)(=O)c2c(N)n(CCN3CCOCC3)c3nc4ccccc4nc23)cc1C | -20.6
COc1ccccc1/C=C/C(=O)OCC(=O)Nc1ccc(Cl)cn1 | 38.9
CC(C)CNC(=O)COC(=O)c1ccc(F)cc1Cl | 10.7
CN(C)c1ccc(C2CC(c3cccc(NS(C)(=O)=O)c3)=NN2C(=O)c2ccccc2)cc1 (stereo not drawn) | 14.1
COCCN(CC(=O)NCc1ccccc1)C(=O)CCC(=O)Nc1ccccn1 | 4.54
CC1(C)OC(c2ccccc2)=C/C(=C/C=C2C(=O)c3ccccc3C2=O)O1 | 17.9

SMILES | hERG current change (%, negative = inhibition) at 10uM [%]
NC(=O)[C@@H]1CC2(CC(c3cccc(NC(=O)[C@@H]4CCC(=O)N4)c3)=NO2)CN1C(=O)Cc1ccc([N+](=O)[O-])cc1 (stereo partly drawn) | 11.5
BrC(/C=N/Nc1nc(N2CCOCC2)nc(N2CCOCC2)n1)=C/c1ccccc1 | -27
Cc1nnc(SCC(=O)NC2CCCCCC2)n1C(C)C | -2.12
COc1ccc(N2CCN(C3CC(=O)N(c4ccc5c(c4)OCCO5)C3=O)CC2)cc1 (stereo not drawn) | -2.06
O=C(O)C(=O)O.c1ccc(CCNc2nc(-c3ccccn3)cs2)cc1 | -8.9
Cc1ccc2c(c1C)OC(=O)CC2(C)C | 4.35
CN(C(=O)CN1C(=O)NC2(CCc3ccccc32)C1=O)C1CCS(=O)(=O)C1 (stereo not drawn) | 16.5
CCOC(=O)C(C)n1cnc2c(nnn2-c2cccc(OC)c2)c1=O (stereo not drawn) | 13.4
COc1ccc(NC(=O)C2CCCN2S(=O)(=O)c2cccc3cccnc23)cc1OC (stereo not drawn) | -3.59
CS(=O)(=O)N1CCN(c2ccccc2NC(=O)CSc2ccc(Cl)cc2)CC1 | -14.2
COc1ccc(CNC(=O)Cn2ncn3cccc3c2=O)cc1 | 3.12
CC(C)NC(=O)Cn1c(SCC(=O)N2CCCCCC2)nc2ccccc21 | 9.85
C=CCc1cccc(C=Nc2cc(Br)ccc2O)c1O | -0.622
Cc1ccc(S(=O)(=O)N/N=C/c2cccc3c2OCCO3)cc1 | -14.9
CCN1CCN(C(c2ccccc2)c2nnnn2Cc2ccc3c(c2)OCO3)CC1.Cl (stereo not drawn) | -39.1
Cc1cc(OCCCn2ccnc2)ccc1[N+](=O)[O-].O=C(O)C(=O)O | -2.51
Cc1ccc(C2=NC3(CCCC3)N=C2SCC(=O)Nc2ccc3c(c2)OCCO3)cc1 | 5.06
CSc1cccc(NC(=O)C2C3C=CC4(O3)C2C(=O)N(CCCN2CCOCC2)C4C(=O)NC2CCCCC2)c1 (stereo not drawn) | 17.1
Cc1csc(NC(=O)CSc2nc3ccccc3c(=O)[nH]2)n1 | 4.76
CCN(C(=O)COC(=O)CNC(=O)C12CC3CC(CC(C3)C1)C2)C1CCS(=O)(=O)C1 (stereo not drawn) | 16.6
COc1ccc(C(=O)Nc2ccc3ncccc3c2)cc1 | 21.8

SMILES | hERG current change (%, negative = inhibition) at 10uM [%]
CC1CCCCC1NC(=O)CN(C)S(=O)(=O)c1cccc2cccnc12 (stereo not drawn) | -0.115
Cc1nn(C(=O)c2ccccc2)c2c1C(=O)CC(C)(C)C2 | -8.17
O=C(Oc1ccc(OC(=O)N2CCOCC2)cc1)c1ccccc1 | 10.8
Cn1c(CCc2nc3ccccc3[nH]2)nnc1SCC#N | 17.3
CCc1ccc2c(CN3CCN(S(=O)(=O)c4ccc5c(c4)OCCO5)CC3)cc(=O)oc2c1 | -4.65
C#CCNC(=O)C(C)c1ncc(C(F)(F)F)cc1Cl (stereo not drawn) | 22.2
CSc1ccc(CN2CCC(n3nccc3NC(=O)CCCc3ccccc3)CC2)cc1 | -82.5
CCCC(=O)Nc1ccc(C(=O)Nc2cc(C(F)(F)F)ccc2Cl)cc1 | 15.4
COc1ccc(CCNC(=O)C2CCN(C(=O)c3cccs3)CC2)cc1 | -0.649
Cc1cccc(NC(=O)CN2CCN(C(=O)c3oc4c(Cl)cccc4c3C)CC2)c1C | -43.6
CCc1ccc(-c2nnn(Cc3nc4ccccc4s3)n2)cc1 | -10.3
Nc1nn(S(=O)(=O)c2ccccc2)cc1-c1cccc([N+](=O)[O-])c1 | 6.01
Cc1ccc(S(=O)(=O)N2CCC[C@H]2C(=O)OCC(=O)c2ccc3c(c2)NC(=O)CO3)cc1 | -42.1
O=C(NC1CC1)C1=C[C@@H](c2c[nH]c3ccccc23)C[C@@H](OCCCCO)O1 | 1.96
Cc1cc(C(=O)Nc2nc3ccc(Cl)cc3s2)nn1C | 5.89
O=C(O)C(=O)O.c1ccc(COc2ccc(OCCCN3CCCCC3)cc2)cc1 | -78.3
C/C(=N\Nc1cccc(Cl)c1)c1ccncc1 | 0.0738
Cc1nn(-c2ccccc2)c(N2CCCC2)c1/C=N/NC(=O)c1cc(-c2cccs2)nc2ccccc12 | -1.55
COC(=O)c1cc(NC(=S)NCc2ccc(Cl)cc2)cc(C(=O)OC)c1 | -20.6
CCc1ccc(Nc2ncc3c(n2)CC(C)CC3=O)cc1 (stereo not drawn) | 14.3
O=C(COc1ccc2c3c(c(=O)oc2c1)CCC3)Nc1ccc(CN2CCOCC2)cc1 | 15.1
